# Experimental data taken from patent US20260176373A1 (BRIGHT BIOLOGICS, published 2026).
# Numbering of substitutions follows the chain as printed. Numbers in names are those of the source.
# B1: 1H11-hv10+11D5_Fc (bispecific antibody)
# chain: EVQLVESGGGLVQPGGSLRLSCAASGGTFSRYIMSWFRQAPGKEREFVSAISGSGGSTYYADSVKGRFTISRDNSKNTLYLQMNSLRAEDTAVYYCASTFYSTTYVAQRDARDYAYWGQGTQVTVSSGSGGSGGSGGSGQVQLVESGGGVVQPGRSLRLSCAASGSTFSSLAMHWVRQAPGKERELVAAISYSGGYTYYADSVKGRFTISRDNSKNTLYLQMNSLRAEDTAVYYCAASSIFIGAYDYWGQGTLVTVSS[here human IgG1 Fc with C220S (EU numbers) without letters]
# notes: anti-HER2/TROP2 BsAb, C220S in the hinge region; also called tandem format
# B2: 1H11-hv8+11D5_Fc (bispecific antibody)
# chain: B1 chain with S35G, A50T
# notes: anti-HER2/TROP2 BsAb, C220S in the hinge region; also called tandem format BsAb
# B3: 1H11-hv10_Fc_11D5 (bispecific antibody)
# chain: EVQLVESGGGLVQPGGSLRLSCAASGGTFSRYIMSWFRQAPGKEREFVSAISGSGGSTYYADSVKGRFTISRDNSKNTLYLQMNSLRAEDTAVYYCASTFYSTTYVAQRDARDYAYWGQGTQVTVSS[here human IgG1 Fc with C220S (EU numbers) without letters]GSGGSGGSGGSGGSGQVQLVESGGGVVQPGRSLRLSCAASGSTFSSLAMHWVRQAPGKERELVAAISYSGGYTYYADSVKGRFTISRDNSKNTLYLQMNSLRAEDTAVYYCAASSIFIGAYDYWGQGTLVTVSS
# notes: anti-HER2/TROP2 BsAb, C220S in the hinge region; also called N-, C-terminal format
# B4: 1H11-hv8_Fc_11D5 (bispecific antibody)
# chain: B3 chain with S35G, A50T
# notes: anti-HER2/TROP2 BsAb, C220S in the hinge region; also called N-, C-terminal format BsAb; lead BsAb
# B5: 11D5_Fc_MMAE (other)
# chain: QVQLVESGGGVVQPGRSLRLSCAASGSTFSSLAMHWVRQAPGKERELVAAISYSGGYTYYADSVKGRFTISRDNSKNTLYLQMNSLRAEDTAVYYCAASSIFIGAYDYWGQGTLVTVSS[here human IgG1 Fc with C220S (EU numbers) without letters]
# modifications: vc-MMAE conjugated to the hinge cysteines (2 Cysteines in each hinge region); DAR 4.0
# B6: 1H11-hv8_Fc_MMAE (other)
# chain: EVQLVESGGGLVQPGGSLRLSCAASGGTFSRYIMGWFRQAPGKEREFVSTISGSGGSTYYADSVKGRFTISRDNSKNTLYLQMNSLRAEDTAVYYCASTFYSTTYVAQRDARDYAYWGQGTQVTVSS[here human IgG1 Fc with C220S (EU numbers) without letters]
# modifications: vc-MMAE conjugated to the hinge cysteines (2 Cysteines in each hinge region); DAR 3.8
# B7: 11D5+1H11-hv10_Fc (bispecific antibody)
# chain: QVQLVESGGGVVQPGRSLRLSCAASGSTFSSLAMHWVRQAPGKERELVAAISYSGGYTYYADSVKGRFTISRDNSKNTLYLQMNSLRAEDTAVYYCAASSIFIGAYDYWGQGTLVTVSSGSGGSGGSGGSGEVQLVESGGGLVQPGGSLRLSCAASGGTFSRYIMSWFRQAPGKEREFVSAISGSGGSTYYADSVKGRFTISRDNSKNTLYLQMNSLRAEDTAVYYCASTFYSTTYVAQRDARDYAYWGQGTQVTVSS[here human IgG1 Fc with C220S (EU numbers) without letters]
# notes: anti-HER2/TROP2 BsAb, C220S in the hinge region
# B8: 11D5_Fc_1H11-hv10 (bispecific antibody)
# chain: QVQLVESGGGVVQPGRSLRLSCAASGSTFSSLAMHWVRQAPGKERELVAAISYSGGYTYYADSVKGRFTISRDNSKNTLYLQMNSLRAEDTAVYYCAASSIFIGAYDYWGQGTLVTVSS[here human IgG1 Fc with C220S (EU numbers) without letters]GSGGSGGSGGSGGSGEVQLVESGGGLVQPGGSLRLSCAASGGTFSRYIMSWFRQAPGKEREFVSAISGSGGSTYYADSVKGRFTISRDNSKNTLYLQMNSLRAEDTAVYYCASTFYSTTYVAQRDARDYAYWGQGTQVTVSS
# notes: as for B7
# Key:
# [1] = target: T1, human TROP2 (Trophoblast cell-surface antigen 2) (human, UniProt P09758 27-323); experiment: flow cytometry whole cell binding, CHO-h-TROP2 stable cells
# T1 construct: whole, on cells; also called TACSTD2; h-TROP2
# T1 sequence (looked up): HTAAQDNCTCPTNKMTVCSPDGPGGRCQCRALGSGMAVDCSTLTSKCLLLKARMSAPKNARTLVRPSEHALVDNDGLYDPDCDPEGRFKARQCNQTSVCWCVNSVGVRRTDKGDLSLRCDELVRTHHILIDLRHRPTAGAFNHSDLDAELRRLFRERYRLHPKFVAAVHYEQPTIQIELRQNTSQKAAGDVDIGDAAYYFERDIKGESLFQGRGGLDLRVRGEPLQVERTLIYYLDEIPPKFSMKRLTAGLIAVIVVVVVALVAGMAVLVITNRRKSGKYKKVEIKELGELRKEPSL
# [2] = target: T2, human HER2 (human epidermal growth factor receptor 2) (human, UniProt P04626); experiment: flow cytometry whole cell binding, CHO-h-HER2 stable cells
# T2 construct: whole, on cells; also called ERBB2; h-HER2
# [3] = target: T1, human TROP2 (Trophoblast cell-surface …); experiment: cell-based or functional assay
# [4] = target: T2, human HER2 (human epidermal growth …); experiment: flow cytometry whole cell binding, SKBR3 cells
# [5] = target: T3, recombinant h-HER2 ECD (his-tagged) (human, UniProt P04626 fragment); experiment: BLI, antibody loaded on the sensor at 300 nM, 200 nM h-HER2 ECD-his
# T3 construct: extracellular domain; Analyte in the BLI assay at 200 nM; also called human HER2; not shown: his tag
# [6] = target: T2, human HER2 (human epidermal growth …); experiment: cell-based or functional assay
# [7] = target: T1, human TROP2 (Trophoblast cell-surface …); experiment: cell-based or functional assay; remark: listed apart in the source
binder,measurement,setting,value
B1,EC50,[1],1.98 nM
same,EC50,[2],1.57 nM
B2,"IC50, nM, Killing of NCI-H441 cells by 2nd Ab-MMAE",[3],0.12 nM
same,binding result,[4],binds
B3,EC50,[1],3.46 nM
same,EC50,[2],0.335 nM
B4,"IC50, nM, Killing of NCI-H441 cells by 2nd Ab-MMAE",[3],0.15 nM
same,binding result,[5],binds
same,binding result,[4],binds
B5,"IC50, nM, in killing assay, AU-565 cells",[6],0.0289 nM
same,"IC50, nM, in killing assay, Colo205 cells",[6],19.6 nM
same,"IC50, nM, in killing assay, N87 cells",[6],0.094 nM
same,"IC50, nM, in killing assay, NCI-H441 cells",[6],13 nM
same,"IC50, nM, in killing assay, NCI-H1975 cells",[6],14.7 nM
same,"IC50, nM, in killing assay, OE-19 cells",[6],0.111 nM
same,"IC50, nM, in killing assay, SK-OV3 cells",[6],0.072 nM
same,"IC50, nM, in killing assay, SKBR3 cells",[6],0.0247 nM
same,"IC50, nM, in killing assay, T-47D cells",[6],38.9 nM
B6,"IC50, nM, in killing assay, AU-565 cells",[7],0.0336 nM
same,"IC50, nM, in killing assay, Colo205 cells",[7],0.42 nM
same,"IC50, nM, in killing assay, N87 cells",[7],0.095 nM
same,"IC50, nM, in killing assay, NCI-H441 cells",[7],0.054 nM
same,"IC50, nM, in killing assay, NCI-H1975 cells",[7],0.29 nM
same,"IC50, nM, in killing assay, OE-19 cells",[7],0.889 nM
same,"IC50, nM, in killing assay, SK-OV3 cells",[7],1.21 nM
same,"IC50, nM, in killing assay, SKBR3 cells",[7],0.0282 nM
same,"IC50, nM, in killing assay, T-47D cells",[7],0.21 nM
B7,EC50,[1],13 nM
same,EC50,[2],0.34 nM
B8,EC50,[1],36.6 nM
same,EC50,[2],0.85 nM
